Results taken from the antibiotic and cytotoxicity screens of Wong et al. (2023).
The other results are listed elsewhere or left out.

Legend:
HSkMC = human skeletal muscle cells; assay: cytotoxicity call (relative viability < 0.9); details: 10 µM
HepG2 = assay: cytotoxicity call (relative viability < 0.9); details: 10 µM
S. aureus RN4220 = assay: growth inhibition call (relative growth <= 0.2); details: 50 µM

Row | SMILES | cytotoxicity call (HSkMC) | cytotoxicity call (HepG2) | growth inhibition call (S. aureus RN4220)
1 | C[C@@H]1CN([C@H](C)CO)C(=O)c2cccc(NC(=O)c3ccc(-c4nccs4)cc3)c2O[C@H]1CN(C)Cc1ccc(C(F)(F)F)cc1 | active | inactive | inactive
2 | O=C(Nc1cccc2cccnc12)[C@H]1[C@@H](c2ccc(C(F)(F)F)cc2)CC(=O)N1C(=O)OCc1ccccc1 | inactive | inactive | inactive
3 | C[C@H]1CN([C@@H](C)CO)C(=O)c2c(c3ccccc3n2C)-c2ccccc2CO[C@H]1CN(C)Cc1cccc(C(=O)O)c1 | inactive | inactive | inactive
4 | C[C@@H]1CN([C@@H](C)CO)C(=O)Cc2cc(NS(=O)(=O)c3cccs3)ccc2O[C@@H]1CN(C)Cc1ccc(Cl)c(Cl)c1 | inactive | inactive | inactive
5 | C[C@H]1CN([C@@H](C)CO)S(=O)(=O)c2ccc(-c3ccc(C(=O)N(C)C)cc3)cc2O[C@H]1CN(C)C(=O)C1CC1 | inactive | inactive | inactive
6 | CC(C)[C@@H](O)C[C@@H](C)O[C@@H]1O[C@H](CO[C@@H]2OC[C@](O)(CO)[C@H]2O)[C@@H](O)[C@H](O)[C@H]1O | inactive | inactive | inactive
7 | CCCNC(=O)N1[C@@H]2c3cccc(=O)n3C[C@H]1[C@H](CO)[C@H]2C(=O)NCC(F)(F)F | inactive | inactive | inactive
8 | Cc1ccc(S(=O)(=O)N(C)C[C@H]2Oc3ccc(NC(=O)CCCN(C)C)cc3C(=O)N([C@H](C)CO)C[C@@H]2C)cc1 | inactive | inactive | inactive
9 | C[C@H](CO)N1C[C@H](C)[C@@H](CN(C)S(C)(=O)=O)Oc2cc(-c3ccc(F)cc3)ccc2S1(=O)=O | inactive | inactive | inactive
10 | CC(=O)Oc1ccc2c(C)cc(=O)oc2c1 | inactive | inactive | inactive
11 | C[C@@H]1CN([C@@H](C)CO)C(=O)c2cc(NS(=O)(=O)c3cn(C)cn3)ccc2O[C@@H](C)CCCCO[C@@H]1CN(C)S(=O)(=O)c1cccs1 | inactive | inactive | inactive
12 | C[C@H]1CN([C@@H](C)CO)C(=O)c2cccc(NS(=O)(=O)c3ccc(Cl)cc3)c2O[C@@H]1CN(C)Cc1ccc(C(=O)Nc2ccccc2N)cc1 | inactive | inactive | inactive
13 | C[C@@H]1CN([C@@H](C)CO)C(=O)c2cc(N(C)C)ccc2O[C@@H]1CN(C)S(C)(=O)=O | inactive | inactive | inactive
14 | COc1ccc(S(=O)(=O)Nc2cccc3c2O[C@H](CN(C)S(=O)(=O)c2c(C)noc2C)[C@@H](C)CN([C@@H](C)CO)C3=O)cc1 | inactive | inactive | inactive
15 | COc1ccc(NC(=O)Nc2ccc3c(c2)C(=O)N([C@@H](C)CO)C[C@H](C)[C@H](CN(C)C(=O)Nc2ccc(OC)cc2)OCCCC[C@H](C)O3)cc1 | inactive | inactive | inactive
16 | COc1ccc(C2C(=O)c3ccccc3C2=O)cc1 | inactive | inactive | inactive
17 | Cn1cc(N2C[C@]3(COCCN(C(=O)C4CC4)C3)OCC2=O)cn1 | inactive | inactive | inactive
18 | Cn1c(=O)c2c(ncn2CC(=O)O)n(C)c1=O | inactive | inactive | inactive
19 | O=C(C[C@H]1CC[C@@H]2[C@H](COC[C@@H](O)CN2C(=O)Nc2ccc(Cl)c(Cl)c2)O1)NCc1ccc(Cl)c(Cl)c1 | inactive | inactive | inactive
20 | CCCN1C[C@H](C)[C@@H](OC)CN(C)C(=O)c2ccc(NS(=O)(=O)c3cn(C)cn3)cc2OC[C@H]1C | inactive | inactive | inactive
21 | Cc1ccc(S(=O)(=O)Nc2ccc3c(c2)C(=O)N(C)[C@@H]2CC[C@H](CC(=O)NCCc4ccncc4)O[C@@H]2CO3)cc1 | inactive | inactive | inactive
22 | C[C@@H]1CN([C@H](C)CO)C(=O)c2cc(NS(=O)(=O)c3cccs3)ccc2O[C@H]1CN(C)Cc1ccc(Cl)c(Cl)c1 | inactive | inactive | inactive
23 | COc1ccc(S(=O)(=O)Nc2cccc3c2O[C@@H](CN(C)S(=O)(=O)c2ccccc2)[C@@H](C)CN([C@@H](C)CO)C3=O)cc1 | inactive | inactive | inactive
24 | C[C@@H]1CN([C@@H](C)CO)C(=O)Cc2cc(NS(=O)(=O)c3cn(C)cn3)ccc2O[C@@H]1CN(C)C | inactive | inactive | inactive
25 | CCS(=O)(=O)Nc1ccc2c(c1)C(=O)N(C)C[C@@H](OC)[C@H](C)CN(CCC(F)(F)F)[C@H](C)CO2 | inactive | inactive | inactive
26 | C[C@H]1CN([C@@H](C)CO)C(=O)Cc2cc(NS(=O)(=O)c3ccc(F)cc3)ccc2O[C@@H]1CN(C)Cc1ccc(-c2ccccc2)cc1 | active | inactive | inactive
27 | CO[C@@H]1CN(C)C(=O)c2ccc(NC(=O)C3CCC3)cc2OC[C@@H](C)N(C(=O)Nc2ccc(C(F)(F)F)cc2)C[C@H]1C | inactive | inactive | inactive
28 | Cc1ccc(S(=O)(=O)N2C[C@@H](O)COC[C@H]3O[C@H](CC(=O)NCc4ccc(C(F)(F)F)cc4)CC[C@@H]32)cc1 | inactive | inactive | inactive

Row | SMILES | cytotoxicity call (HSkMC) | cytotoxicity call (HepG2) | growth inhibition call (S. aureus RN4220)
29 | C[C@@H]1CN([C@@H](C)CO)C(=O)c2cc(NC(=O)CCN3CCOCC3)ccc2O[C@@H]1CN(C)CC1CC1 | inactive | inactive | inactive
30 | CN1C(=O)c2cc(NC(=O)c3cscn3)ccc2OC[C@H]2O[C@@H](CC(=O)N3CCOCC3)CC[C@@H]21 | inactive | inactive | inactive
31 | Cc1ccc(S(=O)(=O)Nc2ccc3c(c2)C(=O)N([C@@H](C)CO)C[C@@H](C)[C@@H](CN(C)S(=O)(=O)c2ccc(C)cc2)OCCCC[C@H](C)O3)cc1 | inactive | inactive | inactive
32 | O=C(O)CSC(=S)N1CCOCC1 | inactive | inactive | inactive
33 | COC(=O)C[C@H]1CC[C@@H]2[C@H](COC[C@@H](O)CN2S(=O)(=O)c2ccc(F)cc2)O1 | inactive | inactive | inactive
34 | Cc1ccsc1[C@@H](O)CN | inactive | inactive | inactive
35 | CC(C)[C@H]1NC(=O)CNC1=O | inactive | inactive | inactive
36 | COCC#Cc1ccc2c(c1)O[C@@H](CN(C)S(=O)(=O)c1ccc(OC)cc1)[C@H](C)CN([C@H](C)CO)S2(=O)=O | inactive | inactive | inactive
37 | C[C@H]1CN([C@@H](C)CO)C(=O)Cc2cc(NC(=O)CCCN(C)C)ccc2O[C@@H]1CN(C)S(=O)(=O)c1cccs1 | inactive | inactive | inactive
38 | CC(C)NC(=O)N(C)C[C@H]1OCCCC[C@H](C)Oc2ccc(NC(=O)Nc3cccc4ccccc34)cc2C(=O)N([C@@H](C)CO)C[C@H]1C | inactive | inactive | inactive
39 | Clc1cccc2ccncc12 | inactive | inactive | inactive
40 | C[C@@H]1CCCCO[C@H](CN(C)C(=O)Nc2ccc(C(F)(F)F)cc2)[C@H](C)CN([C@@H](C)CO)C(=O)c2cc(NC(=O)Nc3cccc4ccccc34)ccc2O1 | inactive | inactive | inactive
41 | C[C@H]1CCCCO[C@@H](CN(C)C(=O)NC2CCCCC2)[C@@H](C)CN([C@@H](C)CO)C(=O)c2cc(NS(=O)(=O)c3ccc(F)cc3)ccc2O1 | inactive | inactive | inactive
42 | COCC(=O)N1[C@@H]2c3cccc(=O)n3C[C@@H]2[C@@H](CO)[C@@H]1C(=O)NCc1ccccc1 | inactive | inactive | inactive
43 | C[C@@H]1CCCCO[C@H](CN(C)S(=O)(=O)c2ccccc2)[C@H](C)CN([C@@H](C)CO)C(=O)c2cc(NC(=O)Nc3ccc(C(F)(F)F)cc3)ccc2O1 | inactive | active | inactive
44 | C[C@H](CO)N1C[C@H](C)[C@H](CN(C)Cc2ccc(C(=O)O)cc2)OCCCC[C@H](C)Oc2ccc(NC(=O)c3ccccc3)cc2C1=O | inactive | inactive | inactive
45 | CNC[C@@H]1OCCCC[C@@H](C)Oc2ccc(NC(=O)c3ccncc3)cc2C(=O)N([C@@H](C)CO)C[C@H]1C | inactive | inactive | inactive
46 | COc1ccc(NC(=O)[C@@H]2[C@H](c3ccc(C)cc3)CC(=O)N2C(=O)OCc2ccccc2)c2ncccc12 | inactive | inactive | inactive
47 | C[C@H](CO)N1C[C@H](C)[C@@H](CN(C)C(=O)C2CCCCC2)OCCCC[C@H](C)Oc2ccc(NC(=O)Nc3ccc4c(c3)OCO4)cc2C1=O | inactive | inactive | inactive
48 | C[C@@H]1CCCCO[C@H](CN(C)C(=O)Nc2ccccc2)[C@H](C)CN([C@@H](C)CO)C(=O)c2cc(NC(=O)Nc3ccc4c(c3)OCO4)ccc2O1 | inactive | inactive | inactive
49 | COc1ccc(NC(=O)Nc2ccc3c(c2)C(=O)N([C@@H](C)CO)C[C@@H](C)[C@@H](CN(C)C(=O)Nc2ccc(OC)cc2)OCCCC[C@H](C)O3)cc1 | inactive | inactive | inactive
50 | COc1ccc(S(=O)(=O)N(C)C[C@H]2Oc3c(NC(=O)c4cc(C)nn4C)cccc3C(=O)N([C@@H](C)CO)C[C@@H]2C)cc1 | inactive | inactive | inactive
51 | COc1ccc(S(=O)(=O)N2C[C@@H](O)COC[C@H]3O[C@@H](CC(=O)N[C@@H]4CCN(Cc5ccccc5)C4)CC[C@@H]32)cc1 | inactive | inactive | inactive
52 | CCCC#Cc1ccc2c(c1)O[C@H](CN(C)Cc1ccc3c(c1)OCO3)[C@H](C)CN([C@@H](C)CO)S2(=O)=O | inactive | inactive | inactive
53 | Cc1cc(O)cc(O)c1C(=O)O | inactive | inactive | inactive
54 | Cc1ccc(-c2ccc3c(c2)O[C@@H](CN(C)C(=O)NC(C)C)[C@@H](C)CN([C@H](C)CO)S3(=O)=O)cc1 | inactive | inactive | inactive
55 | Cc1ccc(S(=O)(=O)Nc2cccc3c2O[C@@H](CN(C)Cc2ccc(Oc4ccccc4)cc2)[C@@H](C)CN([C@H](C)CO)C3=O)cc1 | inactive | inactive | inactive
